Test results as given in publication PMC4336329 (PLoS ONE, 2015).
Among all 310,000 compounds or so, about 14,000 (4.5%) showed an effect of 50% or more. Effects have a minus sign here. The list shows a part of the results.

target: human ether-à-go-go-related gene (hERG) potassium channel (human, UniProt Q12809); experiment: primary screen, population patch clamp on CHO cells stably expressing hERG
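Note: peak tail current of the secondary pulse compared with the same well before compound.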

Chain of human ether-à-go-go-related gene (hERG) potassium channel (Q12809 whole entry, looked up): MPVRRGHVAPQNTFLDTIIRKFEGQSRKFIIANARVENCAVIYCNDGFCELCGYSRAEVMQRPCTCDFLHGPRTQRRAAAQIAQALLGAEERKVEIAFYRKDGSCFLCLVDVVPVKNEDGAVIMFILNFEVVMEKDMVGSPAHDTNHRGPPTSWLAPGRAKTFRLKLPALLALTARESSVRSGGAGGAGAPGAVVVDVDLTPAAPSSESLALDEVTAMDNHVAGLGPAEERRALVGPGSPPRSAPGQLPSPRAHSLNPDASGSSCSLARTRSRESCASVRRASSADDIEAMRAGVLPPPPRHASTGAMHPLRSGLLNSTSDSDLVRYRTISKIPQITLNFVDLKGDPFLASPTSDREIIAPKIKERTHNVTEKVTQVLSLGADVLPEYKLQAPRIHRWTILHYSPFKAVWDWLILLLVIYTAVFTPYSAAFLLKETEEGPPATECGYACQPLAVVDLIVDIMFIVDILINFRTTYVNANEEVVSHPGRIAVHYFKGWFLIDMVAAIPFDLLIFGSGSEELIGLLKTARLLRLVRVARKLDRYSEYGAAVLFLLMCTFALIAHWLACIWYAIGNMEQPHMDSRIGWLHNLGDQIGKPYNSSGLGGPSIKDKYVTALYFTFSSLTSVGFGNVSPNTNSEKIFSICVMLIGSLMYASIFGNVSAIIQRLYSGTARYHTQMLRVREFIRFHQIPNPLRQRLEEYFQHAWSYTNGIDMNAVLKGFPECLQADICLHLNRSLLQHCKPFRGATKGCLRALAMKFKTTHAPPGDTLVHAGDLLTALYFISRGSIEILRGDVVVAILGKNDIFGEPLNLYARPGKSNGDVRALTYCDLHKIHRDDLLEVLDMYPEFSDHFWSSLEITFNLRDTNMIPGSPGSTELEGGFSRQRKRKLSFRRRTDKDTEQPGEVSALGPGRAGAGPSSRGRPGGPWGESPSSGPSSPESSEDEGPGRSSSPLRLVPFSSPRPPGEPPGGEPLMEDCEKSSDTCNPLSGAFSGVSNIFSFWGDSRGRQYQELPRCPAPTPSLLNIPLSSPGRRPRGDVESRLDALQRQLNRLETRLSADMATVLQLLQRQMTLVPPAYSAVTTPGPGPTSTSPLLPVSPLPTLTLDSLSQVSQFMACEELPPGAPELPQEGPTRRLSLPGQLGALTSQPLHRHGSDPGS

Compound	hERG current change (%, negative = inhibition) at 10uM
COc1ccc2c(c1O)[C@]13CCN(C)[C@H](C2)[C@@H]1CCC(=O)C3	-13.5%
Cc1ccc(OCCCCn2cnc3ccccc32)c(C)c1.O=C(O)C(=O)O	-20.5%
CSc1ccc(-c2cccc([N+](=O)[O-])c2)nn1	12.5%
CC(=O)c1ccc(N2CCN(CC(=O)Nc3ccccc3N3CCOCC3)CC2)cc1	-7.49%
O=C(NCCCNC(=O)c1ccc(-c2cc(Cl)ccc2Cl)o1)c1cnccn1	-39.1%
O=C(Nc1ccc(-c2csc(Nc3ccc(Cl)cc3)n2)cc1)c1cc([N+](=O)[O-])cc(C(F)(F)F)c1	13.1%
CCn1nnnc1NCc1ccc(SC)cc1	18.9%
O=C(Cc1ccccc1)NCc1cccnc1	4.9%
CCOC(=O)Cn1c(=O)c2c(nc(N3CCOCC3)n2C)n(C)c1=O	-4.47%
Cc1cccc(NC(=O)NNC(=O)c2cc(-c3ccccc3Cl)nc3ccccc23)c1	2.58%
Cc1cc(C)c(NC(=O)CCN2C(=O)c3ccccc3S2(=O)=O)c(C)c1	12.6%
O=S(=O)(c1ccccc1)N1CCN(Cc2cccc(Cl)c2)CC1	-18.1%
CC(O)CSc1nc2c(c(=O)[nH]c(=O)n2C)n1Cc1ccccc1Cl (stereo not drawn)	-5.33%
Cc1sc2ncnc(N3CCCCC3)c2c1C	-11.9%
Cc1cc([N+](=O)[O-])ccc1NC(=O)c1cc2ccccc2o1	16.3%
Cc1ccc2nc(-c3cccc(Br)c3)cc(C(=O)NC3=NCCS3)c2c1	31.9%
O=C(c1n[nH]c(=O)c2ccccc12)N1CCN(c2ccccc2)CC1	-4.74%
N/C(=N\OC(=O)c1ccc(Cl)cc1Cl)c1cccnc1	-0.864%
Cc1ccsc1/C=N/Nc1ncnc2nc[nH]c12	-11.7%
COCCCNC(=O)CN1C(=O)/C(=C\c2ccc(C)cc2)Sc2ccccc21	-15.8%
Clc1ccc(Cl)c(OCCN2CCCC2)c1	-38.8%
COC(=O)CN(c1ccc(C)cc1)S(=O)(=O)c1c(C)[nH]c(=O)[nH]c1=O	0.0858%

Compound	hERG current change (%, negative = inhibition) at 10uM
Cn1c2ccccc2c2cnn(CC(=O)Nc3cccc(F)c3)c(=O)c21	12.8%
COc1ccc(NS(=O)(=O)c2cc(NC(=O)c3cc(=O)c4ccccc4o3)ccc2OC)cc1	-4.65%
FC(F)Sc1ccc(NC(=S)NC2CCCCC2)cc1	-1.2%
Cc1cc(C)n(C(=O)CNC(=O)c2ccc3c(c2)OCCO3)n1	2.34%
CCSC1=N/C(=C\c2cccnc2)C(=O)N1c1ccccc1	-29.5%
CCn1cnc2c(Nc3cccc(Cl)c3)nc(C#N)nc21	6.19%
Cc1ccnc(SCC(=O)NC2CCCCCC2)n1	-6.97%
FC(F)(F)c1cc(-c2cccs2)nc2ncnn12	1.4%
C=CCn1c(SCC(=O)Nc2cc(NC(C)=O)ccc2OC)nnc1-c1ccccn1	-8.09%
CCOc1cc(/C=N/NC(=O)C(N)=O)cc(Br)c1O	19.5%
CCCn1c(=O)c(C(=O)NCc2ccco2)c(O)c2ccccc21	9.11%
COc1ccc(CCN2CC(C(=O)NCC(=O)Nc3ccc(F)c(F)c3)CC2=O)cc1OC (stereo not drawn)	1.09%
O=C(NCc1nc2ccccc2[nH]1)C1=C[C@H](c2ccccc2)C[C@H](OCCCCO)O1	-36.3%
Cc1cc(C)c2nc(N3CCN(C(=O)c4ccco4)CC3)sc2c1	-28.5%
Fc1ccc2c(c1)nnn2C1CCN(Cc2ccccc2)CC1	-61.4%
COC(=O)c1ccccc1NS(=O)(=O)c1ccc2[nH]c(=O)[nH]c2c1	16.4%
CCOc1ccccc1-c1n[nH]c(=S)o1	22.5%
Cn1cc(Br)c(C(=O)NC(=S)N2CCN(c3ccccn3)CC2)n1	11.1%
Cc1cc(C)n(C(C)CNS(=O)(=O)c2ccccc2)n1 (stereo not drawn)	22.1%
CCN(CC)S(=O)(=O)c1ccc(Cl)nc1	-0.5%
COc1ccccc1N1CCN(S(=O)(=O)CCNC(=O)c2cc(=O)c3ccccc3o2)CC1	7.33%
Cc1ccc(C(C(=O)NC2CCCCC2)N(Cc2ccco2)C(=O)C2COc3ccccc3O2)o1 (stereo not drawn)	-6.27%

Compound	hERG current change (%, negative = inhibition) at 10uM
COc1ccc(C(=O)NC2CCN(C(=O)Nc3ccc(F)cc3)CC2)cc1	-17.9%
Cc1noc(C)c1C(=O)N1CCC(C(=O)c2ccccc2)CC1	-3.77%
O=C(N/N=C/c1cccnc1)c1ccccc1NS(=O)(=O)c1cccs1	32.1%
CCN(CC)C(=O)COc1ccc(S(=O)(=O)N2CCOCC2)cc1	0.481%
Cn1cc(S(=O)(=O)CC(=O)Nc2ccc3c(c2)OCO3)c2ccccc21	-6.03%
CCOC(=O)N1CCN(C(=O)c2cccc(NC3=NC4CS(=O)(=O)CC4S3)c2)CC1 (stereo not drawn)	4.31%
Cc1nn(-c2ccccc2)c(N2CCCC2)c1/C=N/Nc1ccc(S(=O)(=O)Nc2ccccc2)cc1[N+](=O)[O-]	7.3%
CCOc1cc(/C=C/c2cccc[n+]2C)ccc1OCC(=O)Nc1ccc(C)cc1.[I-]	11.1%
O=S(=O)(c1ccc(Nc2ccc(-c3ccc4c(c3)OCCO4)nn2)cc1)N1CCCC1	5.27%
CC1CCc2c(C(=O)Nc3ccc(OC(F)(F)F)cc3)csc2C1 (stereo not drawn)	-4.3%
COCCNC(=O)C1=C(N)C(C(=O)Nc2ccc(C)c(S(=O)(=O)N3CCCCC3)c2)SC1=Nc1ccc(C)cc1C (stereo not drawn)	17.3%
CCSC1=C(C#N)C(=O)n2c1cc1c2CCCC1	3.76%
CCOC(=O)c1sc2nc3n(c(=O)c2c1C)CCC3	1.58%
CCCc1cc(=O)oc2cc(OCC(=O)N3CCC(C(=O)O)(c4ccccc4)CC3)ccc12	6.41%
CSc1ccccc1NC(=O)Nc1cccc(Cl)c1C	18%
COc1ccc(C(=O)N/C(=C\c2cn(S(=O)(=O)N(C)C)c3ccccc23)C(=O)NCCN2CCOCC2)cc1	-9.75%
C=CCn1c(SC(F)F)nc2scc(-c3ccco3)c2c1=O	11%
N#C/C(=C(/O)c1ccc(Cl)cc1)c1nc2ccccc2[nH]1	7.3%
O=C(NCCC1=CCCCC1)c1ccc(Cl)c(S(=O)(=O)Nc2ccccc2)c1	11.5%
COc1ccc(CN(C)C(=O)Cn2ccc(NC(=O)OCc3ccccc3)nc2=O)cc1OC	-20.4%
COc1cc(/C=C2/NC(=O)NC2=O)cc(Br)c1OCc1cccc(C(=O)O)c1	19.2%
N#CCCn1nnc2ccccc21	5.87%

Compound	hERG current change (%, negative = inhibition) at 10uM
COc1ccc(Cn2c(O)c(/C=N/NC(=O)c3ccncc3)c(=O)[nH]c2=O)cc1	13.3%
COc1ccc(-n2c(Cc3cccn3C)nnc2SCC(=O)NCC2CCCO2)cc1 (stereo not drawn)	8.01%
CCOC(=O)C1=C(C)N(C)C(=S)NC1c1ccccc1Cl (stereo not drawn)	-5.25%
CCOC(=O)CCS(=O)(=O)c1ccc(-c2ccc(S(=O)(=O)CCC(=O)OCC)cc2)cc1	-22.7%
COc1cccc(CNC(=O)C2CCC(CNc3nc(=S)[nH]c4ccccc34)CC2)c1 (stereo not drawn)	7.39%
CC1(C)CC(=O)c2c(oc3cc(O)c(O)cc23)C1	1.26%
CC(C)(C)c1cccc(Oc2nn[nH]n2)c1	1.15%
CCOC(=O)c1cc2c(nc1NC(=S)Nc1ccccc1)CC(C)(CC)OC2 (stereo not drawn)	18.5%
Cc1ccccc1NC(=O)Nc1c(C)n(C)n(-c2ccccc2)c1=O	-31.8%
CCCc1nnc(NC(=O)CCC(=O)Nc2ccc(F)cc2)s1	0.689%
Cc1ccc(C)c(OC(C)C(=O)Nc2ccc(S(=O)(=O)Nc3nccs3)cc2)c1 (stereo not drawn)	-6.04%
CCOC(=O)C(NC(C)=O)(Nc1ccc(S(=O)(=O)Nc2onc(C)c2C)cc1)C(F)(F)F (stereo not drawn)	14.3%
Cc1ccccc1S(=O)(=O)Cc1ccc(C(=O)NCCCN2CCCC(C)C2)o1 (stereo not drawn)	-21.1%
O=C(c1cccnc1)N1CCN(c2ccc([N+](=O)[O-])cc2Cl)CC1	-65%
CC(=O)c1ccc(NC(=S)N2CCN(S(=O)(=O)c3ccc(F)cc3)CC2)cc1	-38.1%
COc1ccc(OC)c(/C=N/NC(=O)c2[nH]nc3c2CCc2ccccc2-3)c1	21.3%
CC(=O)Nc1ccc(S(=O)(=O)N2CCN(c3cc4c(cc3[N+](=O)[O-])n(C)c(=O)n4C)CC2)cc1	-16.3%
CCCc1cc(=O)[nH]c2nnc(SCC(=O)Nc3cccc(NC(C)=O)c3)n12	6.51%
COCCCNc1ncnc2nc[nH]c12	1.95%
CCCN(CC(=O)Nc1ccc(F)c(F)c1F)C(=O)C1CC(=O)N(Cc2ccccc2)C1 (stereo not drawn)	-26.9%
Cc1ccc(OCC(=O)Oc2cccc(C)c2C)cc1	12.6%
